In the supplement of paper PMC8728848:
The list shows a part of the results.

What was measured:
Assay in all cases: glycan array binding signal (z-score within array); higher = stronger binding
Settings in all cases: glycan notation: IUPAC condensed, linker removed
[1] = target: Gal(b1-3)GlcNAc(b1-3)Gal(b1-3)GlcNAc
Summary of the method: (§1)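 Columns mapping to the same glycan were averaged after glycan names were converted to IUPAC-condensed notation. The data come from 3228 arrays in the Consortium for Functional Glycomics database, limited to those with an available protein sequence. Binding is reported as a within-array Z-score averaged across arrays of one protein sequence and across linkers.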

[2] = target: Gal(b1-3)GlcNAc(b1-3)Gal(b1-4)Glc
Summary of the method: as §1

[3] = target: Gal(b1-3)GlcNAc(b1-3)Gal(b1-4)GlcNAc
Summary of the method: as §1

[4] = target: Gal(b1-3)GlcNAc(b1-3)Gal(b1-4)GlcNAc(b1-2)Man(a1-3)[Gal(b1-3)GlcNAc(b1-3)Gal(b1-4)GlcNAc(b1-2)Man(a1-6)]Man(b1-4)GlcNAc(b1-4)GlcNAc
Summary of the method: as §1

[5] = target: Gal(b1-3)GlcNAc(b1-3)Gal(b1-4)GlcNAc(b1-2)[Gal(b1-3)GlcNAc(b1-3)Gal(b1-4)GlcNAc(b1-6)]Man(a1-6)[Gal(b1-3)GlcNAc(b1-3)Gal(b1-4)GlcNAc(b1-2)Man(a1-3)]Man(b1-4)GlcNAc(b1-4)[Fuc(a1-6)]GlcNAc
Summary of the method: as §1

[6] = target: Gal(b1-3)GlcNAc(b1-3)Gal(b1-4)GlcNAc(b1-3)Gal(b1-4)GlcNAc(b1-2)[Gal(b1-3)GlcNAc(b1-3)Gal(b1-4)GlcNAc(b1-3)Gal(b1-4)GlcNAc(b1-6)]Man(a1-6)[Gal(b1-3)GlcNAc(b1-3)Gal(b1-4)GlcNAc(b1-3)Gal(b1-4)GlcNAc(b1-2)Man(a1-3)]Man(b1-4)GlcNAc(b1-4)[Fuc(a1-6)]GlcNAc
Summary of the method: as §1

[7] = target: Gal(b1-3)GlcNAc(b1-3)Gal(b1-4)GlcNAc(b1-6)[Gal(b1-3)GlcNAc(b1-3)]Gal(b1-4)Glc
Summary of the method: as §1

[8] = target: Gal(b1-3)GlcNAc(b1-3)Gal(b1-4)[Fuc(a1-3)]GlcNAc
Summary of the method: as §1

[9] = target: Gal(b1-3)GlcNAc(b1-3)Gal(b1-4)[Fuc(a1-3)]GlcNAc(b1-6)[Gal(b1-3)GlcNAc(b1-3)]Gal(b1-4)Glc
Summary of the method: as §1

[10] = target: Gal(b1-3)GlcNAc(b1-3)GalNAc
Summary of the method: as §1

[11] = target: Gal(b1-3)GlcNAc(b1-6)Gal(b1-4)GlcNAc
Summary of the method: as §1

[12] = target: Gal(b1-3)GlcNAc(b1-6)GalNAc
Summary of the method: as §1

[13] = target: Gal(b1-3)GlcNAc(b1-6)[Gal(b1-3)]GalNAc
Summary of the method: as §1

Gal(b1-3)GlcNAc6S = target: Gal(b1-3)GlcNAc6S
Summary of the method: as §1

[14] = target: Gal(b1-3)[Fuc(a1-4)]GlcNAc
Summary of the method: as §1

[15] = target: Gal(b1-3)[Fuc(a1-4)]GlcNAc(b1-2)Man
Summary of the method: as §1

[16] = target: Gal(b1-3)[Fuc(a1-4)]GlcNAc(b1-2)Man(a1-3)[Gal(b1-3)[Fuc(a1-4)]GlcNAc(b1-2)Man(a1-6)]Man(b1-4)GlcNAc(b1-4)GlcNAc
Summary of the method: as §1

[17] = target: Gal(b1-3)[Fuc(a1-4)]GlcNAc(b1-2)Man(a1-3)[Gal(b1-3)[Fuc(a1-4)]GlcNAc(b1-2)Man(a1-6)]Man(b1-4)GlcNAc(b1-4)[Fuc(a1-6)]GlcNAc
Summary of the method: as §1

[18] = target: Gal(b1-3)[Fuc(a1-4)]GlcNAc(b1-3)Gal(b1-3)[Fuc(a1-4)]GlcNAc
Summary of the method: as §1

[19] = target: Gal(b1-3)[Fuc(a1-4)]GlcNAc(b1-3)Gal(b1-4)GlcNAc
Summary of the method: as §1

[20] = target: Gal(b1-3)[Fuc(a1-4)]GlcNAc(b1-3)Gal(b1-4)[Fuc(a1-3)]GlcNAc
Summary of the method: as §1

[21] = target: Gal(b1-3)[Fuc(a1-4)]GlcNAc(b1-6)GalNAc
Summary of the method: as §1

[22] = target: Gal(b1-3)[GlcNAc(b1-6)]GalNAc
Summary of the method: as §1

[23] = target: Gal(b1-3)[Neu5Ac(a2-6)]GalNAc
Summary of the method: as §1

[24] = target: Gal(b1-3)[Neu5Ac(a2-6)]GlcNAc(b1-4)Gal(b1-4)Glc
Summary of the method: as §1

[25] = target: Gal(b1-3)[Neu5Ac(a2-6)]GlcNAc(b1-6)Gal(b1-4)Glc
Summary of the method: as §1

[26] = target: Gal(b1-3)[Neu5Ac(b2-6)]GalNAc
Summary of the method: as §1

Gal(b1-4)Gal = target: Gal(b1-4)Gal
Summary of the method: as §1

[27] = target: Gal(b1-4)GalNAc(a1-3)[Fuc(a1-2)]Gal(b1-4)GlcNAc
Summary of the method: as §1

[28] = target: Gal(b1-4)GalNAc(b1-3)[Fuc(a1-2)]Gal(b1-4)GlcNAc
Summary of the method: as §1

Gal(b1-4)Glc = target: Gal(b1-4)Glc
Summary of the method: as §1

Gal(b1-4)Glc6S = target: Gal(b1-4)Glc6S
Summary of the method: as §1

Gal(b1-4)GlcNAc = target: Gal(b1-4)GlcNAc
Summary of the method: as §1

[29] = target: Gal(b1-4)GlcNAc(a1-6)Gal(b1-4)GlcNAc
Summary of the method: as §1

Gal(b1-4)GlcNAc(b1-2)Man = target: Gal(b1-4)GlcNAc(b1-2)Man
Summary of the method: as §1

[30] = target: Gal(b1-4)GlcNAc(b1-2)Man(a1-3)Man(b1-4)GlcNAc(b1-4)GlcNAc
Summary of the method: as §1

[31] = target: Gal(b1-4)GlcNAc(b1-2)Man(a1-3)[Gal(b1-4)GlcNAc(b1-2)Man(a1-6)]Man(b1-4)GlcNAc(b1-4)GlcNAc
Summary of the method: as §1

[32] = target: Gal(b1-4)GlcNAc(b1-2)Man(a1-3)[Gal(b1-4)GlcNAc(b1-2)Man(a1-6)]Man(b1-4)GlcNAc(b1-4)[Fuc(a1-6)]GlcNAc
Summary of the method: as §1

[33] = target: Gal(b1-4)GlcNAc(b1-2)Man(a1-3)[Gal(b1-4)GlcNAc(b1-2)Man(a1-6)][Gal(b1-4)GlcNAc(b1-4)]Man(b1-4)GlcNAc(b1-4)[Fuc(a1-6)]GlcNAc
Summary of the method: as §1

[34] = target: Gal(b1-4)GlcNAc(b1-2)Man(a1-3)[Gal(b1-4)GlcNAc(b1-2)Man(a1-6)][GlcNAc(b1-4)]Man(b1-4)GlcNAc(b1-4)[Fuc(a1-6)]GlcNAc
Summary of the method: as §1

[35] = target: Gal(b1-4)GlcNAc(b1-2)Man(a1-3)[GlcNAc(b1-2)Man(a1-6)]Man(b1-4)GlcNAc(b1-4)GlcNAc
Summary of the method: as §1

[36] = target: Gal(b1-4)GlcNAc(b1-2)Man(a1-3)[GlcNAc(b1-4)][Gal(b1-4)GlcNAc(b1-2)Man(a1-6)]Man(b1-4)GlcNAc(b1-4)GlcNAc
Summary of the method: as §1

[37] = target: Gal(b1-4)GlcNAc(b1-2)Man(a1-3)[Man(a1-6)]Man(b1-4)GlcNAc(b1-4)GlcNAc
Summary of the method: as §1

[38] = target: Gal(b1-4)GlcNAc(b1-2)Man(a1-6)Man(b1-4)GlcNAc(b1-4)GlcNAc
Summary of the method: as §1

[39] = target: Gal(b1-4)GlcNAc(b1-2)Man(a1-6)[GlcNAc(b1-2)Man(a1-3)]Man(b1-4)GlcNAc(b1-4)GlcNAc
Summary of the method: as §1

B1: HPAIIITrx (Helix pomatia), Q1KM18 (protein)
chain: MLFVTIISLGLLAIVHGQCALKTIAFSAAIDREQTFDANQVVIYDIVITNHGNAYDNSTGLFTAPVDGMYSFQLNLLTIKEKEGWLELVHNGQLKVSVYAKQDSTYDSSSNSVIIKMKEGDRVNVRAHKKSGLFGRDDELYNTFSGHFLSGL
**Q.** Which “glycan array binding signal (z-score)” value [1] does the source give for B1 here?
**A.** Its value is -0.379.

**Q.** And the “glycan array binding signal (z-score)” value [2]?
**A.** Its value is -0.309.

**Q.** And the “glycan array binding signal (z-score)” value [3]?
**A.** The value was -0.518.

**Q.** What about the “glycan array binding signal (z-score)” value [4] of the same binder?
**A.** The value was -0.319.

**Q.** What about the “glycan array binding signal (z-score)” value [5] of the same binder?
**A.** The value was 0.381.

**Q.** And the “glycan array binding signal (z-score)” value [6]?
**A.** The value was 0.041.

**Q.** And the “glycan array binding signal (z-score)” value [7]?
**A.** The value was -0.455.

**Q.** What about the “glycan array binding signal (z-score)” value [8] of the same binder?
**A.** Its value is -0.391.

**Q.** And the “glycan array binding signal (z-score)” value [9]?
**A.** The value was -0.411.

**Q.** And the “glycan array binding signal (z-score)” value [10]?
**A.** The value was -0.344.

**Q.** What about the “glycan array binding signal (z-score)” value [11] of the same binder?
**A.** Its value is -0.461.

**Q.** What about the “glycan array binding signal (z-score)” value [12] of the same binder?
**A.** Its value is -0.368.

**Q.** And the “glycan array binding signal (z-score)” value [13]?
**A.** The value was -0.238.

**Q.** And the “glycan array binding signal (z-score)” value (Gal(b1-3)GlcNAc6S)?
**A.** The value was -0.279.

**Q.** And the “glycan array binding signal (z-score)” value [14]?
**A.** Its value is -0.091.

**Q.** What about the “glycan array binding signal (z-score)” value [15] of the same binder?
**A.** Its value is 0.062.

**Q.** What about the “glycan array binding signal (z-score)” value [16] of the same binder?
**A.** The value was 0.733.

**Q.** And the “glycan array binding signal (z-score)” value [17]?
**A.** Its value is 0.11.

**Q.** What about the “glycan array binding signal (z-score)” value [18] of the same binder?
**A.** Its value is 0.166.

**Q.** What about the “glycan array binding signal (z-score)” value [19] of the same binder?
**A.** Its value is 0.014.

**Q.** What about the “glycan array binding signal (z-score)” value [20] of the same binder?
**A.** The value was -0.35.

**Q.** What about the “glycan array binding signal (z-score)” value [21] of the same binder?
**A.** The value was -0.267.

**Q.** What about the “glycan array binding signal (z-score)” value [22] of the same binder?
**A.** Its value is -0.419.

**Q.** And the “glycan array binding signal (z-score)” value [23]?
**A.** The value was -0.314.

**Q.** And the “glycan array binding signal (z-score)” value [24]?
**A.** The value was -0.43.

**Q.** And the “glycan array binding signal (z-score)” value [25]?
**A.** Its value is -0.165.

**Q.** What about the “glycan array binding signal (z-score)” value [26] of the same binder?
**A.** Its value is -0.404.

**Q.** And the “glycan array binding signal (z-score)” value (Gal(b1-4)Gal)?
**A.** The value was -0.094.

**Q.** And the “glycan array binding signal (z-score)” value [27]?
**A.** The value was -0.357.

**Q.** What about the “glycan array binding signal (z-score)” value [28] of the same binder?
**A.** Its value is -0.479.

**Q.** And the “glycan array binding signal (z-score)” value (Gal(b1-4)Glc)?
**A.** Its value is -0.056.

**Q.** And the “glycan array binding signal (z-score)” value (Gal(b1-4)Glc6S)?
**A.** The value was -0.023.

**Q.** And the “glycan array binding signal (z-score)” value (Gal(b1-4)GlcNAc)?
**A.** The value was -0.289.

**Q.** And the “glycan array binding signal (z-score)” value [29]?
**A.** Its value is -0.406.

**Q.** And the “glycan array binding signal (z-score)” value (Gal(b1-4)GlcNAc(b1-2)Man)?
**A.** Its value is -0.119.

**Q.** What about the “glycan array binding signal (z-score)” value [30] of the same binder?
**A.** Its value is -0.279.

**Q.** And the “glycan array binding signal (z-score)” value [31]?
**A.** Its value is -0.38.

**Q.** And the “glycan array binding signal (z-score)” value [32]?
**A.** The value was -0.189.

**Q.** What about the “glycan array binding signal (z-score)” value [33] of the same binder?
**A.** Its value is -0.46.

**Q.** And the “glycan array binding signal (z-score)” value [34]?
**A.** Its value is -0.468.

**Q.** What about the “glycan array binding signal (z-score)” value [35] of the same binder?
**A.** The value was -0.276.

**Q.** And the “glycan array binding signal (z-score)” value [36]?
**A.** Its value is -0.402.

**Q.** And the “glycan array binding signal (z-score)” value [37]?
**A.** The value was -0.23.

**Q.** What about the “glycan array binding signal (z-score)” value [38] of the same binder?
**A.** The value was -0.23.

**Q.** What about the “glycan array binding signal (z-score)” value [39] of the same binder?
**A.** Its value is -0.301.
